# According to the supplement of paper PMC8728848:
# This is one part of the list.
# B1: Lam16A (Thermotoga maritima), Q9WXN1 (protein)
# chain: EQINNGTFDEPIVNDQANNPDEWFIWQAGDYGISGARVSDYGVRDGYAYITIADPGTDTWHIQFNQWIGLYRGKTYTISFKAKADTPRPINVKILQNHDPWTNYFAQTVNLTADWQTFTFTYTHPDDADEVVQISFELGEGTATTIYFDDVTVSPQ
# Key:
# Assay in all cases: glycan array binding signal (z-score within array); higher = stronger binding
# Conditions in all cases: glycan notation: IUPAC condensed, linker removed
# Glc(b1-3)Glc = target: Glc(b1-3)Glc
# Method in brief: (§1)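 The binding signal is a Z-score computed within each array. Data were drawn from 3228 arrays in the Consortium for Functional Glycomics database, restricted to those with a known protein sequence. Scores were averaged over arrays of the same protein sequence at different concentrations or buffers, and over linkers, and negative values can be taken as non-binding.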
# Glc(b1-3)Glc(b1-3)Glc = target: Glc(b1-3)Glc(b1-3)Glc
# Method in brief: as §1
# [1] = target: Glc(b1-3)Glc(b1-3)Glc(b1-3)Glc
# Method in brief: as §1
# [2] = target: Glc(b1-3)Glc(b1-3)Glc(b1-3)Glc(b1-3)Glc
# Method in brief: as §1
# [3] = target: Glc(b1-3)Glc(b1-3)Glc(b1-3)Glc(b1-3)Glc(b1-3)Glc
# Method in brief: as §1
# [4] = target: Glc(b1-3)Glc(b1-3)Glc(b1-3)Glc(b1-3)Glc(b1-3)Glc(b1-3)Glc
# Method in brief: as §1
# [5] = target: Glc(b1-3)Glc(b1-3)Glc(b1-3)Glc(b1-3)Glc(b1-3)Glc(b1-3)Glc(b1-3)Glc
# Method in brief: as §1
# [6] = target: Glc(b1-3)Glc(b1-3)Glc(b1-3)Glc(b1-3)Glc(b1-3)Glc(b1-3)Glc(b1-3)Glc(b1-3)Glc
# Method in brief: as §1
# [7] = target: Glc(b1-3)Glc(b1-3)Glc(b1-3)Glc(b1-3)Glc(b1-3)Glc(b1-3)Glc(b1-3)Glc(b1-3)Glc(b1-3)Glc
# Method in brief: as §1
# [8] = target: Glc(b1-3)Glc(b1-3)Glc(b1-3)Glc(b1-3)Glc(b1-3)Glc(b1-3)Glc(b1-3)Glc(b1-3)Glc(b1-3)Glc(b1-3)Glc
# Method in brief: as §1
# [9] = target: Glc(b1-3)Glc(b1-3)Glc(b1-3)Glc(b1-3)Glc(b1-3)Glc(b1-3)Glc(b1-3)Glc(b1-3)Glc(b1-3)Glc(b1-3)Glc(b1-3)Glc
# Method in brief: as §1
# [10] = target: Glc(b1-3)Glc(b1-3)Glc(b1-3)Glc(b1-3)Glc(b1-3)Glc(b1-3)Glc(b1-3)Glc(b1-3)Glc(b1-3)Glc(b1-3)Glc(b1-3)Glc(b1-3)Glc
# Method in brief: as §1
# [11] = target: Glc(b1-3)Glc(b1-3)Glc(b1-3)Glc(b1-3)Glc(b1-3)Glc(b1-3)Glc(b1-3)[Glc(b1-6)]Glc(b1-3)Glc
# Method in brief: as §1
# [12] = target: Glc(b1-3)Glc(b1-3)Glc(b1-3)Glc(b1-3)Glc(b1-3)Glc(b1-3)[Glc(b1-6)]Glc(b1-3)Glc(b1-3)Glc
# Method in brief: as §1
# [13] = target: Glc(b1-3)Glc(b1-3)Glc(b1-3)Glc(b1-3)[Glc(b1-6)]Glc(b1-3)Glc(b1-3)Glc(b1-3)Glc(b1-3)Glc
# Method in brief: as §1
# [14] = target: Glc(b1-3)Glc(b1-3)Glc(b1-3)[Glc(b1-6)]Glc(b1-3)Glc(b1-3)Glc(b1-3)Glc(b1-3)[Glc(b1-6)]Glc(b1-3)Glc
# Method in brief: as §1
# [15] = target: Glc(b1-3)Glc(b1-3)[Glc(b1-6)]Glc(b1-3)Glc(b1-3)Glc(b1-3)Glc(b1-3)Glc(b1-3)Glc(b1-3)Glc
# Method in brief: as §1
# Glc(b1-3)Glc(b1-4)Glc = target: Glc(b1-3)Glc(b1-4)Glc
# Method in brief: as §1
# [16] = target: Glc(b1-3)Glc(b1-4)Glc(b1-4)Glc
# Method in brief: as §1
# [17] = target: Glc(b1-3)Glc(b1-4)Glc(b1-6)Glc(b1-4)Glc
# Method in brief: as §1
# [18] = target: Glc(b1-3)[Glc(b1-6)]Glc(a1-3)Glc(b1-3)[Glc(b1-6)]Glc
# Method in brief: as §1
# [19] = target: Glc(b1-3)[Glc(b1-6)]Glc(b1-3)Glc(b1-3)Glc(b1-3)Glc(b1-3)Glc(b1-3)Glc(b1-3)Glc
# Method in brief: as §1
# Glc(b1-4)Glc = target: Glc(b1-4)Glc
# Method in brief: as §1
# Glc(b1-4)Glc(b1-3)Glc = target: Glc(b1-4)Glc(b1-3)Glc
# Method in brief: as §1
# [20] = target: Glc(b1-4)Glc(b1-3)Glc(b1-4)Glc
# Method in brief: as §1
# Glc(b1-4)Glc(b1-4)Glc = target: Glc(b1-4)Glc(b1-4)Glc
# Method in brief: as §1
# [21] = target: Glc(b1-4)Glc(b1-4)Glc(b1-3)Glc
# Method in brief: as §1
# [22] = target: Glc(b1-4)Glc(b1-4)Glc(b1-3)Glc(b1-4)Glc(b1-4)Glc(b1-3)Glc
# Method in brief: as §1
# [23] = target: Glc(b1-4)Glc(b1-4)Glc(b1-4)Glc
# Method in brief: as §1
# [24] = target: Glc(b1-4)Glc(b1-4)Glc(b1-4)Glc(b1-3)Glc
# Method in brief: as §1
# [25] = target: Glc(b1-4)Glc(b1-4)Glc(b1-4)Glc(b1-4)Glc
# Method in brief: as §1
# [26] = target: Glc(b1-4)Glc(b1-4)Glc(b1-4)Glc(b1-4)Glc(b1-4)Glc
# Method in brief: as §1
# [27] = target: Glc(b1-4)Glc(b1-4)Glc(b1-4)Glc(b1-4)Glc(b1-4)Glc(b1-4)Glc
# Method in brief: as §1
# [28] = target: Glc(b1-4)Glc(b1-4)Glc(b1-4)Glc(b1-4)Glc(b1-4)Glc(b1-4)Glc(b1-4)Glc
# Method in brief: as §1
# [29] = target: Glc(b1-4)Glc(b1-4)Glc(b1-4)Glc(b1-4)Glc(b1-4)Glc(b1-4)Glc(b1-4)Glc(b1-4)Glc
# Method in brief: as §1
# [30] = target: Glc(b1-4)Glc(b1-4)Glc(b1-4)Glc(b1-4)Glc(b1-4)Glc(b1-4)Glc(b1-4)Glc(b1-4)Glc(b1-4)Glc
# Method in brief: as §1
# [31] = target: Glc(b1-4)Glc(b1-4)Glc(b1-4)Glc(b1-4)Glc(b1-4)Glc(b1-4)Glc(b1-4)Glc(b1-4)Glc(b1-4)Glc(b1-4)Glc
# Method in brief: as §1
# [32] = target: Glc(b1-4)Glc(b1-4)Glc(b1-4)Glc(b1-4)Glc(b1-4)Glc(b1-4)Glc(b1-4)Glc(b1-4)Glc(b1-4)Glc(b1-4)Glc(b1-4)Glc
# Method in brief: as §1
# [33] = target: Glc(b1-4)Glc(b1-4)Glc(b1-4)Glc(b1-4)Glc(b1-4)Glc(b1-4)Glc(b1-4)Glc(b1-4)Glc(b1-4)Glc(b1-4)Glc(b1-4)Glc(b1-4)Glc
# Method in brief: as §1
# Glc(b1-6)Glc = target: Glc(b1-6)Glc
# Method in brief: as §1
# Glc(b1-6)Glc(b1-6)Glc = target: Glc(b1-6)Glc(b1-6)Glc
# Method in brief: as §1
# [34] = target: Glc(b1-6)Glc(b1-6)Glc(b1-6)Glc
# Method in brief: as §1
# [35] = target: Glc(b1-6)Glc(b1-6)Glc(b1-6)Glc(b1-6)Glc
# Method in brief: as §1
# [36] = target: Glc(b1-6)Glc(b1-6)Glc(b1-6)Glc(b1-6)Glc(b1-6)Glc
# Method in brief: as §1
# [37] = target: Glc(b1-6)Glc(b1-6)Glc(b1-6)Glc(b1-6)Glc(b1-6)Glc(b1-6)Glc
# Method in brief: as §1
# [38] = target: Glc(b1-6)Glc(b1-6)Glc(b1-6)Glc(b1-6)Glc(b1-6)Glc(b1-6)Glc(b1-6)Glc
# Method in brief: as §1
# [39] = target: Glc(b1-6)Glc(b1-6)Glc(b1-6)Glc(b1-6)Glc(b1-6)Glc(b1-6)Glc(b1-6)Glc(b1-6)Glc
# Method in brief: as §1
# [40] = target: Glc(b1-6)Glc(b1-6)Glc(b1-6)Glc(b1-6)Glc(b1-6)Glc(b1-6)Glc(b1-6)Glc(b1-6)Glc(b1-6)Glc
# Method in brief: as §1
# [41] = target: Glc(b1-6)Glc(b1-6)Glc(b1-6)Glc(b1-6)Glc(b1-6)Glc(b1-6)Glc(b1-6)Glc(b1-6)Glc(b1-6)Glc(b1-6)Glc
# Method in brief: as §1
# [42] = target: Glc(b1-6)Glc(b1-6)Glc(b1-6)Glc(b1-6)Glc(b1-6)Glc(b1-6)Glc(b1-6)Glc(b1-6)Glc(b1-6)Glc(b1-6)Glc(b1-6)Glc
# Method in brief: as §1
# [43] = target: Glc(b1-6)Glc(b1-6)Glc(b1-6)Glc(b1-6)Glc(b1-6)Glc(b1-6)Glc(b1-6)Glc(b1-6)Glc(b1-6)Glc(b1-6)Glc(b1-6)Glc(b1-6)Glc
# Method in brief: as §1
# [44] = target: Man(b1-4)Man(b1-4)Man(b1-4)Man
# Method in brief: as §1
# [45] = target: Man(b1-4)Man(b1-4)Man(b1-4)Man(b1-4)Man
# Method in brief: as §1
# [46] = target: Man(b1-4)Man(b1-4)Man(b1-4)Man(b1-4)Man(b1-4)Man
# Method in brief: as §1
# [47] = target: Xyl(b1-4)Xyl(b1-4)Xyl(b1-4)Xyl(b1-4)Xyl
# Method in brief: as §1
# [48] = target: Xyl(b1-4)Xyl(b1-4)Xyl(b1-4)Xyl(b1-4)Xyl(b1-4)Xyl
# Method in brief: as §1
binder,measurement,setting,value
B1,glycan array binding signal (z-score),Glc(b1-3)Glc,-0.373
same,glycan array binding signal (z-score),Glc(b1-3)Glc(b1-3)Glc,-0.359
same,glycan array binding signal (z-score),[1],0.527
same,glycan array binding signal (z-score),[2],1.45
same,glycan array binding signal (z-score),[3],1.79
same,glycan array binding signal (z-score),[4],1.73
same,glycan array binding signal (z-score),[5],2.94
same,glycan array binding signal (z-score),[6],2.58
same,glycan array binding signal (z-score),[7],2.77
same,glycan array binding signal (z-score),[8],3.64
same,glycan array binding signal (z-score),[9],4.46
same,glycan array binding signal (z-score),[10],4.88
same,glycan array binding signal (z-score),[11],2.11
same,glycan array binding signal (z-score),[12],1.28
same,glycan array binding signal (z-score),[13],1.41
same,glycan array binding signal (z-score),[14],1.26
same,glycan array binding signal (z-score),[15],2.49
same,glycan array binding signal (z-score),Glc(b1-3)Glc(b1-4)Glc,-0.373
same,glycan array binding signal (z-score),[16],-0.358
same,glycan array binding signal (z-score),[17],-0.308
same,glycan array binding signal (z-score),[18],-0.373
same,glycan array binding signal (z-score),[19],0.667
same,glycan array binding signal (z-score),Glc(b1-4)Glc,-0.373
same,glycan array binding signal (z-score),Glc(b1-4)Glc(b1-3)Glc,-0.373
same,glycan array binding signal (z-score),[20],-0.373
same,glycan array binding signal (z-score),Glc(b1-4)Glc(b1-4)Glc,-0.373
same,glycan array binding signal (z-score),[21],-0.373
same,glycan array binding signal (z-score),[22],-0.301
same,glycan array binding signal (z-score),[23],-0.373
same,glycan array binding signal (z-score),[24],-0.373
same,glycan array binding signal (z-score),[25],-0.373
same,glycan array binding signal (z-score),[26],-0.373
same,glycan array binding signal (z-score),[27],-0.373
same,glycan array binding signal (z-score),[28],-0.373
same,glycan array binding signal (z-score),[29],-0.373
same,glycan array binding signal (z-score),[30],-0.373
same,glycan array binding signal (z-score),[31],-0.373
same,glycan array binding signal (z-score),[32],-0.365
same,glycan array binding signal (z-score),[33],-0.373
same,glycan array binding signal (z-score),Glc(b1-6)Glc,-0.373
same,glycan array binding signal (z-score),Glc(b1-6)Glc(b1-6)Glc,-0.373
same,glycan array binding signal (z-score),[34],-0.373
same,glycan array binding signal (z-score),[35],-0.373
same,glycan array binding signal (z-score),[36],-0.373
same,glycan array binding signal (z-score),[37],-0.373
same,glycan array binding signal (z-score),[38],-0.373
same,glycan array binding signal (z-score),[39],-0.373
same,glycan array binding signal (z-score),[40],-0.373
same,glycan array binding signal (z-score),[41],-0.373
same,glycan array binding signal (z-score),[42],-0.373
same,glycan array binding signal (z-score),[43],-0.373
same,glycan array binding signal (z-score),[44],-0.373
same,glycan array binding signal (z-score),[45],-0.373
same,glycan array binding signal (z-score),[46],-0.373
same,glycan array binding signal (z-score),[47],-0.373
same,glycan array binding signal (z-score),[48],-0.373
